US11414436B2, “Non-coordinating anion type activators containing cation having large alkyl groups” (ExxonMobil Chemical Patents Inc., priority 2018, dated 2022)
Some of these results come from one statement about several compounds together. For at least one compound, name, drawing or mass did not settle the structure.

Assay: Solubility studies of the activators (saturated solution in isohexane or methylcyclohexane)
Format: physicochemical
Conditions: for very high solubility in methylcyclohexane: 25° C.
Method: Solubility Studies of the Activators
Procedure for Solid Activators.
A saturated solution of each of the solid ammonium borate activators was prepared by stirring an excess of the activator with either isohexane or methylcyclohexane solvent for several hours at 25° C. The mixture was then filtered and a known volume of the filtrate was evaporated to dryness in a tared vial. The vial was then weighed to determine the mass of activator that was dissolved in the aliquot. The concentration of the saturated solution is presented in millimoles of activator per liter of solution (mM).
Procedure for Activators that Form Emulsions.
A saturated solution of the activator was prepared by slowly adding the solvent to a pre-weighed amount of the activator. The final volume was determined as the minimum amount of solvent required to convert the emulsion into a homogeneous solution. The concentration of the saturated solution is presented in millimoles of activator per liter of solution (mM). Alternatively, an emulsion of the activator was prepared by adding the solvent to an excess amount of activator. The resulting emulsion was separated from the undissolved solids by decanting the emulsion into a tared vial. Solvent was then added dropwise until the emulsion became homogeneous. The mass of the final solution was measured and then the solvent was evaporated to dryness to obtain the mass of the activator. The concentration of the saturated solution is presented in millimoles of activator per liter of solution (mM).

Compound	solubility at 25° C. in either isohexane or methylcyclohexane (MeCy) [mM]	very high solubility in methylcyclohexane [mM]
CCCCCCCCCCCCCCCCCC[NH+](CCCCCCCCCCCCCCCCCC)c1ccc(C)cc1.Fc1c(F)c(F)c2c(F)c([B-](c3c(F)c(F)c4c(F)c(F)c(F)c(F)c4c3F)(c3c(F)c(F)c4c(F)c(F)c(F)c(F)c4c3F)c3c(F)c(F)c4c(F)c(F)c(F)c(F)c4c3F)c(F)c(F)c2c1F [DOdTH-BF28, 4-methyl-N,N-dioctadecylbenzenaminium-BF28]	> 10	> 100
CCCCCCCCCC[NH+](CCCCCCCCCC)c1ccc(C)cc1.Fc1c(F)c(F)c2c(F)c([B-](c3c(F)c(F)c4c(F)c(F)c(F)c(F)c4c3F)(c3c(F)c(F)c4c(F)c(F)c(F)c(F)c4c3F)c3c(F)c(F)c4c(F)c(F)c(F)c(F)c4c3F)c(F)c(F)c2c1F [DDTH-BF28, N,N-didecyl-4-methylanilinium-BF28]	< 10	
CCCCCCCCCCCCCCCCCCc1ccc([NH+](C)C)cc1.Fc1c(F)c(F)c2c(F)c([B-](c3c(F)c(F)c4c(F)c(F)c(F)c(F)c4c3F)(c3c(F)c(F)c4c(F)c(F)c(F)c(F)c4c3F)c3c(F)c(F)c4c(F)c(F)c(F)c(F)c4c3F)c(F)c(F)c2c1F [OdDMAH-BF28, N,N-dimethyl-4-octadecylbenzenaminium-BF28]	< 10	
CCCCCCCCCC[NH+](C)c1ccccc1.Fc1c(F)c(F)c([B-](c2c(F)c(F)c(F)c(F)c2F)(c2c(F)c(F)c(F)c(F)c2F)c2c(F)c(F)c(F)c(F)c2F)c(F)c1F [MDAH-BF20, N-decyl-N-methylanilinium-BF20]	< 10	
CCCCCCCCCCCCCCCCCCc1ccc([NH+](C)C)cc1.Fc1c(F)c(F)c([B-](c2c(F)c(F)c(F)c(F)c2F)(c2c(F)c(F)c(F)c(F)c2F)c2c(F)c(F)c(F)c(F)c2F)c(F)c1F [OdDMAH-BF20, N,N-dimethyl-4-octadecylbenzenaminium-BF20]	< 10	
CCCCCCCCCC[NH+](CCCCCCCCCC)c1ccc(C)cc1.Fc1c(F)c(F)c([B-](c2c(F)c(F)c(F)c(F)c2F)(c2c(F)c(F)c(F)c(F)c2F)c2c(F)c(F)c(F)c(F)c2F)c(F)c1F [DDTH-BF20, N,N-didecyl-4-methylanilinium-BF20]	< 10	
CCCCCCCCCCCCCCCCCC[NH+](CCCCCCCCCCCCCCCCCC)c1ccc(C)cc1.Fc1c(F)c(F)c([B-](c2c(F)c(F)c(F)c(F)c2F)(c2c(F)c(F)c(F)c(F)c2F)c2c(F)c(F)c(F)c(F)c2F)c(F)c1F [DOdTH-BF20, 4-methyl-N,N-dioctadecylbenzenaminium-BF20]	> 10	> 100
CCCCCCCCCC[NH+](C)c1ccccc1.Fc1c(F)c(F)c2c(F)c([B-](c3c(F)c(F)c4c(F)c(F)c(F)c(F)c4c3F)(c3c(F)c(F)c4c(F)c(F)c(F)c(F)c4c3F)c3c(F)c(F)c4c(F)c(F)c(F)c(F)c4c3F)c(F)c(F)c2c1F [MDAH-BF28, N-decyl-N-methylanilinium-BF28]	< 10	
